The other results are listed elsewhere or left out.

This experiment has as its target T1, OsWOX13 (Oryza sativa, UniProt Q5QMM3 1-267).
T1 sequence: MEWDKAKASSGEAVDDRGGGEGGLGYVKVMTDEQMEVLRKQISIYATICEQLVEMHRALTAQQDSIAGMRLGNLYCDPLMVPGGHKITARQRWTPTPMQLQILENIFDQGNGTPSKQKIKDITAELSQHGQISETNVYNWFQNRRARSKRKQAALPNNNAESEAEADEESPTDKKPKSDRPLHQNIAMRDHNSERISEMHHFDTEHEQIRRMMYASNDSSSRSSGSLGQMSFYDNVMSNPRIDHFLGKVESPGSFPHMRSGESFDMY
In words: protein-binding microarray (RPBM); PBS, 2% BSA, 51.3 ng/ul salmon testes DNA, 50 uM zinc acetate, 200 nM TF, 25 C, 1 h; high values mean tight binding. The settings on record: protein: recombinant; tags: N-terminal polyhistidine and DsRed monomer fusion (pET32a); label: CyDye5-dUTP incorporated in the synthesized complementary strand; 3' TTTTT single-stranded linker to array surface; dsDNA, one strand shown. The essentials: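 The binding signal for each feature is its fluorescence intensity in arbitrary units. An Axon 4000B scanner was used to read a custom Agilent array that had been made double-stranded with Cy5-dUTP primer extension, blocked with 2% BSA, incubated at 25 °C for 1 h with 200 nM protein in PBS, 2% BSA, salmon testes DNA and 50 µM zinc acetate, and washed. The protein was an N-terminal polyhistidine–DsRed transcription factor fusion from E. coli BL21-CodonPlus, purified on Ni–NTA.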
For “CACTTACCATGATAATTTGAACAGTTCACACGCGCCGAGACGGAGTCACCTAGTGCAG”, the binding signal is 5850 fluorescence intensity (a.u.).
“ATTTAGATCTAATGAAACTAATTTGCTATTTTAGATGTTGCGGAGTCACCTAGTGCAG”: the binding signal is 5750 fluorescence intensity (a.u.).
As for “CTATAAATTTAACATATTGTGCTACGCTCAATATATCGTTCGGAGTCACCTAGTGCAG”, the figure is 12300 fluorescence intensity (a.u.); as for “TCCTCGGCATAATTTCCCTCAAGGATTGGTACCAAGTCATCGGAGTCACCTAGTGCAG”, 4010 fluorescence intensity (a.u.).
As for “ACACATTTTGATTAAATGGAAATATCAGTAATAATGGTTACGGAGTCACCTAGTGCAG”, the figure is 9200 fluorescence intensity (a.u.); as for “AACTTTGTTTTACTGCTAATTATAATCACCAGTAGAGAGACGGAGTCACCTAGTGCAG”, 9950 fluorescence intensity (a.u.); as for “GAATAACTGCCAATCAAAGCTTTATCCTAATGAACTATTGCGGAGTCACCTAGTGCAG”, 37500 fluorescence intensity (a.u.).
The result for “ATACATTGTGGATGACTGGTAACTATATTGAGGAAATAGTCGGAGTCACCTAGTGCAG” reads 3530 fluorescence intensity (a.u.); that for “CTCTAATTTGGCTGACAATACCTAGAACGACATACTTCGTCGGAGTCACCTAGTGCAG”, 16900 fluorescence intensity (a.u.).
Regarding “CCCCTTAATTCCATCTCATAGACAGCCAAAAGGGTCAAGACGGAGTCACCTAGTGCAG”, the binding signal was 9070 fluorescence intensity (a.u.).
As for “TTTGATGAATTTCATGCATTCCATCATGAGCAACTTCACCCGGAGTCACCTAGTGCAG”, the figure is 7650 fluorescence intensity (a.u.); as for “CTTATTAGCACATGATTAATTAATTATTAACTATTATAAACGGAGTCACCTAGTGCAG”, 19500 fluorescence intensity (a.u.); as for “ATTAAAACTCAATTAATTACATGTTATTACCATCTCGTTTCGGAGTCACCTAGTGCAG”, 20800 fluorescence intensity (a.u.).
“CTAATGACGAATTAATTAGAATTAATAGATTTATCTTGCACGGAGTCACCTAGTGCAG”: the binding signal is 53300 fluorescence intensity (a.u.).
“CCATGATTAGTCCTAAGTGCTACGGTAATCCACATGTGCTCGGAGTCACCTAGTGCAG”: the binding signal was 45400 fluorescence intensity (a.u.).
As for “GGAAGATAGATAGTGATTAGGTTTATAATACTTGGAGCAACGGAGTCACCTAGTGCAG”, the figure is 31200 fluorescence intensity (a.u.); as for “ATGAATTTATTAAGCCTAATTAATCCGTCATTAGCATATGCGGAGTCACCTAGTGCAG”, 7630 fluorescence intensity (a.u.); as for “GTGCAATCAGATCTGATTTAGATAAATAATTTAAGATAAACGGAGTCACCTAGTGCAG”, 12900 fluorescence intensity (a.u.).
As for “TTTGATTAGTCGTACTATCTTTCTAACGTGTGAGAATCATCGGAGTCACCTAGTGCAG”, the figure is 23700 fluorescence intensity (a.u.).
As for “ATCACCGAAATTTCTAAATCAATGGGAATTATGGCCGGCACGGAGTCACCTAGTGCAG”, the binding signal was 5930 fluorescence intensity (a.u.).
As to “TTTGAGATTTGTGTAAATTGAAAATAGAAAATCATAGCGCCGGAGTCACCTAGTGCAG”, the binding signal was 18300 fluorescence intensity (a.u.).
The result for “CAGCTAGATTACTATATTTTGATTTAGATTCGTAGTACGACGGAGTCACCTAGTGCAG” reads 11900 fluorescence intensity (a.u.); that for “CCTTCTACAAGCTCATTTGATTGAAGAGGCTTGCATGTTGCGGAGTCACCTAGTGCAG”, 5160 fluorescence intensity (a.u.); that for “TTTAATTAGCAGGCAGGAATTAAGAGGCAGCTAACAGTAGCGGAGTCACCTAGTGCAG”, 17100 fluorescence intensity (a.u.).
As for “ATCTTATTAATTAATTCTTTGTGTTTCATATTATTCTAATCGGAGTCACCTAGTGCAG”, the figure is 17100 fluorescence intensity (a.u.); as for “ATGATATAACTGAAAAGTTGTGTGTGTATGACAGGTTGATCGGAGTCACCTAGTGCAG”, 6470 fluorescence intensity (a.u.).
On to “TTTACTTAACAAATGTTTGATTAGATCTTCAGTTTTATATCGGAGTCACCTAGTGCAG”, for which the binding signal is 6130 fluorescence intensity (a.u.).
As for “AAAATATCCAGTATTGTGATTGAGAGATACTACGAATTAGCGGAGTCACCTAGTGCAG”, the figure is 6110 fluorescence intensity (a.u.); as for “CCGATAATTTAGAATAGTTTCTGTATCTGTTCATGGTAAACGGAGTCACCTAGTGCAG”, 17800 fluorescence intensity (a.u.); as for “CCTAATTGCTTAGAGGACAAAGTTAGCTAGGCAGCTAGCTCGGAGTCACCTAGTGCAG”, 16000 fluorescence intensity (a.u.).
The result for “GGCGATTACACGAACTAATCTATCATTATCTCTAGCCGTCCGGAGTCACCTAGTGCAG” reads 3880 fluorescence intensity (a.u.); that for “AACTTCTAATTTTAGTGTAAACTAAACAATTTCTGTCGAACGGAGTCACCTAGTGCAG”, 4330 fluorescence intensity (a.u.).
The result for “TTGATGGATGGATGGATGGAGAGGGGCGTTGCCAAGTCCACGGAGTCACCTAGTGCAG” reads 9900 fluorescence intensity (a.u.).
Consider “TTATTATTGATAATTGATAATTTGGTAAATTGTTGATTTTCGGAGTCACCTAGTGCAG”, for which the binding signal is 30000 fluorescence intensity (a.u.).
As for “CTAAACTGATCTGAAATGTTCGACAGGATATATACAGGGGCGGAGTCACCTAGTGCAG”, the figure is 11800 fluorescence intensity (a.u.); as for “AATCAATCACGCATGAGCACATGGCATCAACTTCACATAACGGAGTCACCTAGTGCAG”, 18700 fluorescence intensity (a.u.); as for “GAGTACTTAATTAATCACGTGCTAATAGACCACTCTGTTTCGGAGTCACCTAGTGCAG”, 28100 fluorescence intensity (a.u.).
As for “ACATGTGGATTTGACAAATTTAGGATCTGTAAATATTGAACGGAGTCACCTAGTGCAG”, the figure is 3360 fluorescence intensity (a.u.); as for “AAAATATAATTGGGTATAAACCCGTCGATACGTACGTACCCGGAGTCACCTAGTGCAG”, 5280 fluorescence intensity (a.u.); as for “CATCAAAATTTTCTTAGACATAACTTTCCACTTTTCTGTCCGGAGTCACCTAGTGCAG”, 3310 fluorescence intensity (a.u.).
The result for “TCGTTAATGAGCCTCAAATTGTTGATTTAACACAGTGCTTCGGAGTCACCTAGTGCAG” reads 22600 fluorescence intensity (a.u.).
On to “GTACACAAAATTTATATTTTAGATTGCTTATTTTGGAAAACGGAGTCACCTAGTGCAG”, for which the binding signal was 8220 fluorescence intensity (a.u.).

For the origin of these results see PMC7819943, “Rice protein-binding microarrays: a tool to detect cis-acting elements near promoter regions in rice”.
